Measured values from PMC4336329 (PLoS ONE, 2015).
About 2,200 (0.71%) of roughly 310,000 compounds showed an effect of 50% or more. The effect is printed as a negative number. This is one part of the list.

The compounds below were run against human ether-à-go-go-related gene (hERG) potassium channel (human, UniProt Q12809) (assay: primary screen, population patch clamp on CHO cells stably expressing hERG).
Sequence of human ether-à-go-go-related gene (hERG) potassium channel (Q12809 whole entry, looked up): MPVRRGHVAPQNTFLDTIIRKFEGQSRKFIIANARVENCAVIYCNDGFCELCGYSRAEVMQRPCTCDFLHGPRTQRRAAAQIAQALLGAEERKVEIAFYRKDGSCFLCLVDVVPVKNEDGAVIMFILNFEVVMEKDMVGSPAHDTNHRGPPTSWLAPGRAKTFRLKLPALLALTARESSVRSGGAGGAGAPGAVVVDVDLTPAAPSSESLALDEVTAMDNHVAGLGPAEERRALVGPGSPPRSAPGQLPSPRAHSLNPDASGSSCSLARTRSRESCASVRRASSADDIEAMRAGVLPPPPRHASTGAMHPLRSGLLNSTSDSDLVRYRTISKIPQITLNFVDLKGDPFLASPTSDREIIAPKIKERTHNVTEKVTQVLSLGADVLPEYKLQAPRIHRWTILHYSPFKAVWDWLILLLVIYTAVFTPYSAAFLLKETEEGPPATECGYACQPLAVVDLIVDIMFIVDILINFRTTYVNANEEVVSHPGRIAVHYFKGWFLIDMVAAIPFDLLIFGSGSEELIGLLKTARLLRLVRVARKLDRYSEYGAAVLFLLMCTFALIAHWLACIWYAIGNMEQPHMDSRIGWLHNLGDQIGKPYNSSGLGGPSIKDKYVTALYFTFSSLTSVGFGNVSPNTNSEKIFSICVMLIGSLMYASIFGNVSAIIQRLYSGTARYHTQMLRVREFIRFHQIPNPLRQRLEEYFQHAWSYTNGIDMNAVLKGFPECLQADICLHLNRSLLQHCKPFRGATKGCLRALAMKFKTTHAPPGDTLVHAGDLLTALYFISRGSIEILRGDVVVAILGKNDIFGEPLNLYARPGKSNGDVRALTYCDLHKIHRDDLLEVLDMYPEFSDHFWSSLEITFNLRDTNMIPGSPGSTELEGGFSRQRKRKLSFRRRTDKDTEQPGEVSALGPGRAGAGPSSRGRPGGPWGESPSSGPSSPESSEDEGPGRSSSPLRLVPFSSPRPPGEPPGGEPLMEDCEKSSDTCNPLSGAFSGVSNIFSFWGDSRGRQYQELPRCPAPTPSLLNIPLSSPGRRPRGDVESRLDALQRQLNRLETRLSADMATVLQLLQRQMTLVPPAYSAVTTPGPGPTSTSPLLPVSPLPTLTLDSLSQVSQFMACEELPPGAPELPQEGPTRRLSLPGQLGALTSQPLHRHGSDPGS
O=C(NCc1ccc(Cl)cc1)N1CCN(S(=O)(=O)c2ccccc2)CC1 was tested, and the “hERG current change (%, negative = inhibition) at 1uM” value was 6.78%. With CN(C)CCN(Cc1ccco1)C(=O)c1cc2c(Cl)nc3ccccc3c2s1 the “hERG current change (%, negative = inhibition) at 1uM” value was -13.7%. For O=C(CN1C(=O)c2ccccc2S1(=O)=O)c1ccccc1F, the “hERG current change (%, negative = inhibition) at 1uM” value was 4.57%. With O=C(CN1CCC(n2nnc3cc(F)ccc32)CC1)NCCc1ccccc1 the “hERG current change (%, negative = inhibition) at 1uM” value was -6.52%. O=C1CN(C(=O)c2ccccc2Cl)c2ccccc2N1 was tested, and the “hERG current change (%, negative = inhibition) at 1uM” value was 12.3%. For O=C(CNc1cccc(Cl)c1)NNC(=S)NCc1ccccc1, the “hERG current change (%, negative = inhibition) at 1uM” value was 14.1%. CCN1CCN(S(=O)(=O)c2ccc(Cl)c(C(=O)N(C)C(c3ccccc3)c3ccccc3)c2)CC1 was tested, and the “hERG current change (%, negative = inhibition) at 1uM” value was 12.6%. In the case of Br.FC(F)(F)c1ccc(N2CCOCC2)c(NC2=NCCCCC2)c1, the “hERG current change (%, negative = inhibition) at 1uM” value is reported as 18.8%. For CC1=C(C)/C(=N\OC(=O)/C=C/c2ccccc2)C=CC1=O, the “hERG current change (%, negative = inhibition) at 1uM” value was 14.2%. O=C(CCC(=O)CCN1CCCCC1)CCN1CCCCC1 was tested, and the “hERG current change (%, negative = inhibition) at 1uM” value was 4.17%. In the case of O=C(NNC(=O)c1ccccc1[N+](=O)[O-])c1ccc(NC(=O)c2ccccc2)cc1, the “hERG current change (%, negative = inhibition) at 1uM” value is reported as 3.1%. With Cc1cccc(OCCOC(=O)C2CCN(S(=O)(=O)c3ccc(C)c(C)c3)CC2)c1 the “hERG current change (%, negative = inhibition) at 1uM” value was 8.14%. With O=C(NC(=S)N1CCCCCC1)c1ccc(Cl)cc1Cl the “hERG current change (%, negative = inhibition) at 1uM” value was 11.6%. C[C@H]1CCCC(=O)CCCCCc2cc(O)cc(O)c2C(=O)O1 was tested, and the “hERG current change (%, negative = inhibition) at 1uM” value was 6.66%. S=C1NCCOCCNC(=S)NCCOCCOCCOCCN1 was tested, and the “hERG current change (%, negative = inhibition) at 1uM” value was 10.9%. For Cc1ccccc1NC(=O)c1c([N+](=O)[O-])cnn1C, the “hERG current change (%, negative = inhibition) at 1uM” value was 15.7%. N#CCCN(CCC#N)C(=O)c1ccc(Cl)cc1 was tested, and the “hERG current change (%, negative = inhibition) at 1uM” value was 9.68%. For O=C(Nc1nc2c(s1)COc1ccccc1-2)c1cccs1, the “hERG current change (%, negative = inhibition) at 1uM” value was 8.46%. For COC(=O)c1sccc1NC(=O)CC1C(=O)NCCN1C(=O)c1c(F)cccc1Cl (stereo not drawn), the “hERG current change (%, negative = inhibition) at 1uM” value was 9.53%. With O=C(COC(=O)c1nsc(Cl)c1Cl)NC1CCCC1 the “hERG current change (%, negative = inhibition) at 1uM” value was 11.2%. In the case of Cc1csc(SCC(=O)Nc2ccc(C)c(F)c2)n1, the “hERG current change (%, negative = inhibition) at 1uM” value is reported as 0.854%. In the case of COCCN(C(=O)c1csnn1)C(C(=O)NC1CCCCC1)c1sccc1C (stereo not drawn), the “hERG current change (%, negative = inhibition) at 1uM” value is reported as -0.647%. With c1ccc(-c2nc(N3CCNCC3)nc3ccccc23)cc1 the “hERG current change (%, negative = inhibition) at 1uM” value was -8.36%. O=C(CSc1nc2ccccc2s1)NCc1cc([N+](=O)[O-])ccc1O was tested, and the “hERG current change (%, negative = inhibition) at 1uM” value was 10.4%. In the case of CC1CCCCC1NC(=O)Cn1cccc1C(=O)c1ccccc1 (stereo not drawn), the “hERG current change (%, negative = inhibition) at 1uM” value is reported as 14%. With CCc1nnc2n1N=C(c1ccc(Cl)cc1)CS2 the “hERG current change (%, negative = inhibition) at 1uM” value was 9.26%. COc1ccc(C2CC(C(F)(F)F)n3ncc(C(=O)Nc4cccc(O)c4)c3N2)cc1OC (stereo not drawn) was tested, and the “hERG current change (%, negative = inhibition) at 1uM” value was 7.53%. CCN(CC)S(=O)(=O)c1cccc(NC(=O)CNC2CCCCCC2)c1.O=C(O)C(=O)O was tested, and the “hERG current change (%, negative = inhibition) at 1uM” value was -0.491%. With Cc1cc(C)cc(N(CC(=O)NC2CCCC2)C(=O)CCC(=O)Nc2nccs2)c1 the “hERG current change (%, negative = inhibition) at 1uM” value was 15.5%. With COc1ccc(-c2nn(C)c(=O)c3ccccc23)cc1NC(=O)Cn1nc(-c2ccccc2)c2ccccc2c1=O the “hERG current change (%, negative = inhibition) at 1uM” value was 7.65%. In the case of Cc1ccc(C(=O)N/C(=C/c2ccco2)C(=O)O)cc1, the “hERG current change (%, negative = inhibition) at 1uM” value is reported as 7.27%. With CCOP(=O)(OCC)C1NC(=O)N(c2ccccc2)C1=O (stereo not drawn) the “hERG current change (%, negative = inhibition) at 1uM” value was 12.6%. In the case of O=C(O)/C=C/C(=O)Nc1ccc(OC(F)(F)F)cc1Br, the “hERG current change (%, negative = inhibition) at 1uM” value is reported as 12.4%. For COc1ccc(C2C(C#N)=C(N)Nc3onc(C(C)(C)C)c32)c(OC)c1 (stereo not drawn), the “hERG current change (%, negative = inhibition) at 1uM” value was 2.98%. CCCC1(C(=O)OC)NC(c2cc(OC)c(OC)c(OC)c2)C2C(=O)N(CC)C(=O)C21 (stereo not drawn) was tested, and the “hERG current change (%, negative = inhibition) at 1uM” value was 8.7%. In the case of CC(C)(C)C(=O)Nc1scc(-c2ccc(-c3ccccc3)cc2)c1C(=O)O, the “hERG current change (%, negative = inhibition) at 1uM” value is reported as 21.8%. C=CCSc1nnc(NC(=O)C23CC4CC(CC(NC(C)=O)(C4)C2)C3)s1 was tested, and the “hERG current change (%, negative = inhibition) at 1uM” value was 12.8%. With CC(=O)c1ccc2noc(-c3cccc(F)c3)c2c1 the “hERG current change (%, negative = inhibition) at 1uM” value was 12.2%. In the case of COc1ccc(-n2ncc3c(Nc4cccc(C)c4)ncnc32)cc1, the “hERG current change (%, negative = inhibition) at 1uM” value is reported as 3.99%. O=C(CCn1nnc2ccccc21)Nc1nnc(COc2ccccc2F)s1 was tested, and the “hERG current change (%, negative = inhibition) at 1uM” value was 12.7%. In the case of COc1ccc(N/C(=N\c2nc(C)cc(C)n2)NC(C)=O)cc1OC, the “hERG current change (%, negative = inhibition) at 1uM” value is reported as 16.7%. In the case of CC1CN(C(=O)c2cc3cc(Cl)ccc3[nH]2)CC(C)O1 (stereo not drawn), the “hERG current change (%, negative = inhibition) at 1uM” value is reported as 9.39%. With CCNC(=O)CSc1nnc(-c2ccccc2Br)n1-c1cccc(C(F)(F)F)c1 the “hERG current change (%, negative = inhibition) at 1uM” value was 2.88%. With O=S(=O)(NC1CCCC1)c1ccc(S(=O)(=O)N(Cc2cccs2)CC2CCCO2)cc1 (stereo not drawn) the “hERG current change (%, negative = inhibition) at 1uM” value was 14.2%. CSc1nsc(SC)c1C(=O)Nc1ccc(Cl)cc1 was tested, and the “hERG current change (%, negative = inhibition) at 1uM” value was 14.7%.
